Test results from the supplement of paper PMC10670038.
Counter-ions that a name gives are not always drawn. ± gives the standard deviation of the averaged measurements. The full ranking holds about 2,000 compounds; the median of “relative cell viability vs DMSO, compound + 0.2 uM CuET” is about 1, and the lowest 2% start at about 0.25. The list shows a part of the results.

Test system: TE10
Experiment: relative cell viability vs DMSO, compound + 0.2 uM CuET (fraction); TE10 is an esophageal squamous carcinoma line; higher = less cytotoxic
Conditions: 2 µM; co-treatment: CuET (bis(diethyldithiocarbamate)copper) 0.2 uM; 48 h
Protocol: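 TE10 ESCC cells (1,000/well, 384-well plates) were treated with Selleck bioactive library compounds at 2 uM combined with 0.2 uM CuET (copper diethyldithiocarbamate) for 48 h. Viability was read by CellTiter-Glo and expressed relative to DMSO wells. Two technical replicates (A, B).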

| SMILES | relative cell viability |
| --- | --- |
| Cc1cc(NC(=O)Nc2ccc(N(C)C)cc2)c2cc(F)cc(F)c2n1 | 1.002 ± 0.0087 |
| Cc1cn([C@H]2O[C@@H](CO)[C@H](O)[C@H]2F)c(=O)[nH]c1=O [Clevudine] | 0.769 ± 0.18 |
| CCOC(=O)[C@H](CCc1ccccc1)N[C@@H](C)C(=O)N1Cc2ccccc2C[C@H]1C(=O)O [Quinapril HCl] | 1.04 ± 0.026 |
| CC(CCc1ccccc1)NCC(O)c1ccc(O)c(C(N)=O)c1 (stereo not given) [Labetalol HCl] | 1.07 ± 0.12 |
| NC1(C(=O)N[C@@H](CCO)c2ccc(Cl)cc2)CCN(c2ncnc3[nH]ccc23)CC1 | 0.882 ± 0.07 |
| CC1CC(OC(=O)C(O)c2ccccc2)CC(C)(C)C1 (stereo not given) [Cyclandelate] | 1.08 ± 0.13 |
| O=C(O)c1cccnc1Nc1cccc(C(F)(F)F)c1 [Niflumic acid] | 1.06 ± 0.18 |
| Cc1oncc1C(=O)Nc1ccc(C(F)(F)F)cc1 [Leflunomide] | 0.968 ± 0.21 |
| CCn1c2ccccc2c2cc(Nc3ccnc(NCCCN4CCOCC4)n3)ccc21 | 0.962 ± 0.11 |
| O=C1[C@H](Cc2ccc(O)cc2)N2C(=O)CCN(C(=O)NCc3ccccc3)[C@H]2CN1Cc1cccc2ccccc12 | 0.844 ± 0.014 |
| CC1(C)S[C@@H]2[C@H](NC(=O)[C@H](NC(=O)N3CCNC3=O)c3ccccc3)C(=O)N2[C@H]1C(=O)O [Azlocillin sodium salt] | 1.45 ± 0.15 |
| Nc1nc2c(ncn2[C@@H]2O[C@H](CO)[C@@H](O)[C@H]2O)c(=O)[nH]1 [Guanosine] | 1.18 ± 0.058 |
| CC(C)OC(=O)[C@H](C)N[P@](=O)(OC[C@H]1O[C@@H](n2ccc(=O)[nH]c2=O)[C@](C)(F)[C@@H]1O)Oc1ccccc1 [Sofosbuvir (PSI-7977, GS-7977)] | 0.976 ± 0.054 |
| COC(c1ccccc1)(c1ccccc1)[C@H](Oc1nc(C)cc(C)n1)C(=O)O [Ambrisentan] | 1.1 ± 0.056 |
| CC(C)N(C[C@H]1O[C@@H](n2cnc3c(N)ncnc32)[C@H](O)[C@@H]1O)[C@H]1C[C@@H](CCc2nc3cc(C(C)(C)C)ccc3[nH]2)C1 | 1.18 ± 0.043 |
| COC(=O)C1=C(C)NC(C)=C(C(=O)OCCN2CCN(C(c3ccccc3)c3ccccc3)CC2)C1c1cccc([N+](=O)[O-])c1 (stereo not given) [Manidipine] | 0.882 ± 0.14 |
| COC(=O)C1=C(C)NC(C)=C(C(=O)OCCN2CCN(C(c3ccccc3)c3ccccc3)CC2)C1c1cccc([N+](=O)[O-])c1 (stereo not given) [Manidipine 2HCl] | 0.986 ± 0.033 |
| C[N+]1(C)[C@@H]2CC[C@H]1C[C@@H](OC(=O)C(O)c1ccccc1)C2 (stereo not given in full) [Homatropine Methylbromide] | 1.13 ± 0.1 |
| C[N+]1(C)[C@@H]2C[C@@H](OC(=O)C(O)(c3cccs3)c3cccs3)C[C@H]1[C@@H]1O[C@@H]12 [Tiotropium Bromide hydrate] | 0.962 ± 0.027 |
| Clc1ccc(NN=C(c2ccccc2)c2ccccn2)nc1 | 0.03199 ± 0.00018 |
| CC(C(=O)O)c1ccc2c(c1)Cc1cccnc1O2 (stereo not given) [Pranoprofen] | 1.02 ± 0.056 |
| O=C(N/N=C/c1cc(O)c(O)cc1O)c1cc2ccccc2cc1O [Dyngo-4a] | 0.8745 ± 0.0076 |
| Cc1cc(C(N)=O)ccc1-n1c(CCC(=O)O)ccc1-c1ccc(-n2ccnc2)cc1 | 1.15 ± 0.02 |
| O=C(/C=C/c1ccc2ccccc2n1)c1ccncc1 | 0.186 ± 0.037 |

| SMILES | relative cell viability |
| --- | --- |
| CC(=O)Nc1ccccc1 [Acetanilide] | 1.018 ± 0.0034 |
| CC(=O)O[C@]1(C(C)=O)CC[C@H]2[C@@H]3C[C@H](C)C4=CC(=O)C=C[C@]4(C)[C@@]3(F)[C@@H](O)C[C@@]21C [Fluorometholone Acetate] | 1.15 ± 0.022 |
| O=C[C@H](O)[C@@H](O)[C@H](O)CO [Xylose] | 1.05 ± 0.012 |
| Cc1ccc(-c2csc(NC(=O)c3ccccc3)n2)c(C)c1 | 1.22 ± 0.19 |
| Cc1cc(C(C)(C)C)c(O)c(C)c1CC1=NCCN1 [Oxymetazoline hydrochloride] | 1.13 ± 0.11 |
| CC(C)(C(=O)O)c1ccc(C(O)CCCN2CCC(C(O)(c3ccccc3)c3ccccc3)CC2)cc1 (stereo not given) [Fexofenadine HCl] | 1.27 ± 0.31 |
| O=c1cc(N2CCOCC2)oc2c(-c3cccc4c3sc3ccccc34)cccc12 | 0.829 ± 0.093 |
| COc1ccc([C@@H]2CC(=O)c3c(O)cc(O[C@@H]4O[C@H](CO[C@@H]5O[C@@H](C)[C@H](O)[C@@H](O)[C@H]5O)[C@@H](O)[C@H](O)[C@H]4O)cc3O2)cc1O [Hesperidin] | 1.14 ± 0.1 |
| Cn1cnc(-c2cc3nccc(Oc4ccc(NC(=S)NC(=O)Cc5ccccc5)cc4F)c3s2)c1 | 1 ± 0.012 |
| CO/N=C(\C(=O)N[C@@H]1C(=O)N2C(C(=O)OCOC(=O)C(C)(C)C)=C(/C=C\c3scnc3C)CS[C@H]12)c1csc(N)n1 [Cefditoren Pivoxil] | 1.04 ± 0.04 |
| C=C1C(=O)O[C@@H]2/C=C(\C)CC/C=C(\C)CC[C@@H]12 [Costunolide] | 0.753 ± 0.011 |
| O=C(Nc1ccccc1)c1cc([N+](=O)[O-])ccc1Cl | 0.941 ± 0.1 |
| Cc1onc(-c2ccccc2)c1-c1ccc(S(N)(=O)=O)cc1 [Valdecoxib] | 1.01 ± 0.13 |
| CCCc1cc(=O)[nH]c(=S)[nH]1 [Propylthiouracil] | 1.06 ± 0.055 |
| C[C@]12CCC(=O)C=C1CC[C@@H]1[C@@H]2[C@@H](O)C[C@@]2(C)[C@H]1CC[C@]2(O)C(=O)CO [Hydrocortisone] | 1.06 ± 0.017 |
| CN1CCN(Cc2ccc(NC(=O)Cc3ccc(Oc4cc(NC(=O)C5CC5)ncn4)cc3)cc2C(F)(F)F)CC1 | 0.9884 ± 0.0017 |
| C=C[C@]1(C)C[C@@H](OC(=O)CS[C@@H]2C[C@H]3CC[C@@H](C2)N3C)[C@]2(C)[C@H](C)CC[C@]3(CCC(=O)[C@H]32)[C@@H](C)[C@@H]1O [Retapamulin] | 1.25 ± 0.065 |
| CN(N=O)C(=O)NC1C(O)OC(CO)C(O)C1O (stereo not given) [Streptozotocin (STZ)] | 1.12 ± 0.067 |
| Oc1ncnc2[nH]ncc12 [Allopurinol] | 1.04 ± 0.05 |
| O=C(CCc1ccc(O)cc1)c1c(O)cc(O)cc1O[C@@H]1O[C@H](CO)[C@@H](O)[C@H](O)[C@H]1O [Phlorizin] | 1.11 ± 0.047 |
| COc1cccc2c1C(=O)c1c(O)c3c(c(O)c1C2=O)C[C@@](O)(C(=O)CO)C[C@@H]3O[C@H]1C[C@H](N)[C@H](O)[C@H](C)O1 [Doxorubicin (Adriamycin)] | 1.03 ± 0.04 |
| CC1(C)S[C@@H]2[C@H](NC(=O)[C@H](N)c3ccc(O)cc3)C(=O)N2[C@H]1C(=O)O [Amoxicillin] | 0.42 ± 0.49 |
| CC1(C)S[C@@H]2[C@H](NC(=O)[C@H](N)c3ccc(O)cc3)C(=O)N2[C@H]1C(=O)O [Amoxicillin Sodium] | 1.06 ± 0.069 |
| Cc1cc(C(=O)NOCCO)c(Nc2ccc(I)cc2F)n(C)c1=O | 0.783 ± 0.14 |

| SMILES | relative cell viability |
| --- | --- |
| Cc1nc(Nc2cnn(C3CCNCC3)c2)nc2c1N(C)C(=O)c1cc3ccccc3cc1N2C | 1.14 ± 0.02 |
| OCCOCCN1CCN(C2=Nc3ccccc3Sc3ccccc32)CC1 [Quetiapine Fumarate] | 1.09 ± 0.054 |
| Nc1nc(Cl)nc2c1ncn2[C@H]1C[C@H](O)[C@@H](CO)O1 [Cladribine] | 1.125 ± 0.011 |
| O=C(C=Cc1ccccc1)NC(NC(=S)Nc1ccc(Cl)cc1)C(Cl)(Cl)Cl (stereo not given) | 0.908 ± 0.014 |
| O=C([C@@H](Cc1cccc(C(F)(F)F)c1)NS(=O)(=O)c1cc(F)c2c(c1)CCNC2)N1CCCC1 | 0.956 ± 0.05 |
| Cc1ccc(Nc2c(F)cccc2Cl)c(CC(=O)O)c1 [Lumiracoxib] | 0.945 ± 0.024 |
| O=c1cc(-c2cccc3c2Sc2ccccc2S3)oc(N2CCOCC2)c1 | 1.21 ± 0.18 |
| Oc1ccc([C@H]2COc3cc(O)ccc3C2)cc1 [Equol] | 1.2 ± 0.21 |
| Fc1ccc(C(c2ccc(F)cc2)N2CCN(C/C=C/c3ccccc3)CC2)cc1 [Flunarizine 2HCl] | 1.1 ± 0.029 |
| N=C(N)c1ccc(OCCCCCOc2ccc(C(=N)N)cc2)cc1 [Pentamidine] | 1.15 ± 0.18 |
| Cc1[nH]c2ccccc2c1CCNC(=O)c1cccs1 | 1.01 ± 0.15 |
| CCCCC(=O)O[C@H]1CC[C@H]2[C@@H]3CCc4cc(O)ccc4[C@H]3CC[C@]12C [Estradiol valerate] | 0.923 ± 0.042 |
| Cc1nc2ccc(-n3ncc(C(=O)c4cc5ccccc5[nH]4)c3N)cc2[nH]1 | 0.987 ± 0.053 |
| N#Cc1c(O)c2c(-c3ccc(-c4ccccc4O)cc3)csc2[nH]c1=O | 1.43 ± 0.18 |
| CC(=O)O[C@@]12CO[C@@H]1C[C@H](O)[C@@]1(C)C(=O)[C@H](O)C3=C(C)[C@@H](OC(=O)[C@H](O)[C@@H](NC(=O)OC(C)(C)C)c4ccccc4)C[C@@](O)([C@@H](OC(=O)c4ccccc4)[C@H]21)C3(C)C [Docetaxel Trihydrate] | 1.08 ± 0.012 |
| CC(=O)O[C@@]12CO[C@@H]1C[C@H](O)[C@@]1(C)C(=O)[C@H](O)C3=C(C)[C@@H](OC(=O)[C@H](O)[C@@H](NC(=O)OC(C)(C)C)c4ccccc4)C[C@@](O)([C@@H](OC(=O)c4ccccc4)[C@H]21)C3(C)C [Docetaxel] | 1.1 ± 0.15 |
| Nc1ccn([C@@H]2O[C@H](CO)[C@@H](O)C2(F)F)c(=O)n1 [Gemcitabine] | 1.03 ± 0.048 |
| COc1ccccc1N1CCN(CCN(C(=O)C2CCCCC2)c2ccccn2)CC1 | 1.08 ± 0.074 |
| CC1CNc2c(cccc2S(=O)(=O)N[C@@H](CCCNC(=N)N)C(=O)N2CC[C@@H](C)C[C@@H]2C(=O)O)C1 (stereo not given in full) [Argatroban] | 0.9507 ± 0.0054 |
| CN(C)CCN(Cc1ccccc1)c1ccccn1 [Tripelennamine HCl] | 1.24 ± 0.021 |
| Fc1ccc(Cl)cc1-c1nc(Nc2ccncc2)c2nccnc2n1 | 0.838 ± 0.11 |
| CO[C@H]1C[C@@H]2CC[C@@H](C)[C@@](O)(O2)C(=O)C(=O)N2CCCC[C@H]2C(=O)O[C@H]([C@H](C)C[C@@H]2CC[C@@H](OCCO)[C@H](OC)C2)CC(=O)[C@H](C)/C=C(\C)[C@@H](O)[C@@H](OC)C(=O)[C@H](C)C[C@H](C)/C=C/C=C/C=C/1C [Everolimus (RAD001)] | 0.982 ± 0.013 |
